The record followed here is PubChem BioAssay (NCI).

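Five compound concentrations were applied to cells in 96-well plates for 48 hours; endpoints were derived by simple linear interpolation of the resulting dose-response curve. GI50 = concentration required for 50% inhibition of growth. TGI: concentration producing complete growth inhibition.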

The assay relates to NCI-H322M lung. The assay can be described thus: DTP human tumour cell line panel, 48 h.

As usually defined, the TGI is the concentration giving total growth inhibition. The low end stands for more potent growth arrest, the high end for less potent growth arrest. `COC1/C=C/C(C)C(C(C)C(OC)C(C)CCC(=O)C(C)C(CC(=O)O)OC)OC(=O)/C=C/C=C(\C)CC(OC)CC2=CC(=O)O[C@H](C2)C(C)C(OC)CC(OC)/C=C/C(C)C(OC)C1` (stereo not given in full) came in with a TGI of over 4.35 µM.
Still for that read-out and setting: the figure for `O=c1c([OH2+])c(-c2ccc(O)cc2[O-])oc2cc(O)cc([O-])c12.O=c1c([OH2+])c(-c2ccc(O)cc2[O-])oc2cc(O)cc([O-])c12.[Ti+4]` is over 100 µM; for `CCCC(=O)NC(Nc1ccc(S(=O)(=O)Nc2ccc(OC)nn2)cc1)(C(F)(F)F)C(F)(F)F` it is over 100 µM.
On to `Cc1ccc(N2C(N)=C(C#N)C(C#N)(C#N)C2c2ccccc2)cc1` (stereo not given), for which the TGI came to 33.3 µM.
Same read-out and setting: under `c1ccc([P+](CCCCCC[P+](c2ccccc2)(c2ccccc2)c2ccccc2)(c2ccccc2)c2ccccc2)cc1` stands 74 µM; under `C/C(Cc1ccc2c(c1)OCO2)=N\NC(=O)C(C)Sc1nnc(SC(C)C(=O)N/N=C(\C)Cc2ccc3c(c2)OCO3)s1` (stereo not given), over 100 µM.
Still for that read-out and setting: the figure for `CC(=O)O[C@H]1CC2C=CC3C(CCC31)O2` (stereo not given in full) is over 100 µM; for `CCCCCCCCC/C=C1/CC(CO)(COC(=O)c2ccccc2)OC1=O` (stereo not given) it is 37.3 µM; for `CCN1CCC(O)(c2ccc(O)cc2)C(C(=O)c2ccc(O)cc2)C1` (stereo not given) it is over 100 µM.
By GI50 is commonly meant the concentration that inhibits growth by half. As for `CCN(Cc1ccc(F)cc1)c1ccc(CO)c(OC)c1`, the GI50 is 25.1 µM and the total growth inhibition concentration (TGI) is over 76.3 µM.
On the same counts, the results for `CCCN1CCC(c2ccc(Nc3nc(Nc4cc(F)ccc4C(N)=O)c4cc[nH]c4n3)c(OC)c2)CC1` are 0.377 µM and 7.39 µM.
`O=c1cc(-c2ccccc2)[nH]c2cc(Cl)ccc12` registered a concentration for total growth inhibition (TGI) of over 100 µM.
With `COc1cnc2c(c1)C(=O)c1c-2n(CCCN2CCNCC2)c(=O)c2cc([N+](=O)[O-])ccc12`, the GI50 is 1.09 µM and the TGI stood at 2.63 µM.
Regarding `CCCCOC(=O)c1cc(C(=CCC[C@H]2CC[C@@]3(C)[C@@H](CC[C@@H]4[C@@H]3CC[C@]3(C)[C@@H](C(C)CCCC(C)C)CC[C@@H]43)C2)c2cc(Cl)c(O)c(C(=O)OCCCC)c2)cc(Cl)c1O` (stereo not given in full), the TGI was over 50 µM.
Regarding `COc1c2c(cc3c1C(=O)Cc1ccc4c(c1CN(C)CC3)OCO4)OCO2`, the TGI is over 100 µM.
Same read-out and setting: under `CC1CN=C(Nc2ccc(F)c(Cl)c2)S1` (stereo not given) stands over 100 µM; under `CN(C)c1ccc(/C=C/c2cc(-c3ccccc3)[n+](C)n2-c2ccccc2)cc1`, 14.6 µM.
For the compound `CC[C@@]1(CCC(=O)NCCc2c[nH]c3ccccc23)CCC(=O)N2CCc3c([nH]c4ccccc34)[C@H]21`, the TGI was over 100 µM.
Compound `O=[N+]([O-])c1cc2c([N+](=O)[O-])cccc2o1` displayed a TGI of 37.5 µM.
As for `COc1cc2c(cc1C)NC(=O)/C2=C\c1c[nH]c2ccccc12`, the GI50 is 14.3 µM and the TGI was found to be 31.1 µM.
`C1CN2CCNCCN(CCN1)CC2`: the TGI was over 100 µM.
Same read-out and setting: under `CC1C(c2ccccc2O)c2cc3c(cc2OC1N1CCOCC1)OCO3` (stereo not given) stands over 100 µM.
`[CH3][Sn]([CH3])([CH3])[O][N+](=O)[O-]`: the GI50 was over 10 µM and the TGI was over 10 µM.
As to `N#Cc1c(O)c2ccccc2[nH]c1=O`, the TGI was over 100 µM.
Still for that read-out and setting: the figure for `Cc1cccc2c1c(=O)c1c(O)cc(O)cc1n2C` is over 100 µM.
Turning to `O=[N+]([O-])c1ccc(Sc2ccncn2)c([N+](=O)[O-])c1`, the GI50 was 6.72 µM and the TGI was 19.8 µM.
As to `O=c1c2cc(I)ccc2nc(-c2cccs2)n1/N=C/c1ccccc1`, the TGI was over 100 µM.
Same read-out and setting: under `C#CC1NC(=O)C1N(CC)CC` (stereo not given) stands over 100 µM; under `Cc1cc(Cl)ccc1NC(=O)C(=O)C(C(=O)c1ccccc1)C1OC(=O)c2ccccc21` (stereo not given), over 100 µM; under `COc1ccc(/C=C/C(=O)c2ccc(OC(=O)/C=C/c3ccccc3)cc2)cc1`, 99.4 µM.
On the same count and under the same terms, under `CCOC(=O)c1cccnc1C(OC(C)=O)OC(C)=O` stands over 100 µM; under `c1ccc(N/N=C2\NN=C(c3ccccc3)CS2)cc1`, over 100 µM.
Same read-out and setting: under `COc1ccc(CCc2cc(OC)c(O)c(OC)c2)cc1` stands over 100 µM.
`Cc1nnc(Sc2nc(C#N)c(C#N)nc2Sc2nnc(C)s2)s1`: the TGI was found to be 37.7 µM.
The same measure, in the same setting: under `O=c1ccnc2ccc3n[nH][nH]c3c12` stands over 100 µM; under `O=C(O[C@H]1CCN2C[C@H]3C[C@H](CN4C(=O)CCC[C@H]34)[C@@H]2C1)c1ccc(O)cc1`, over 100 µM.
Consider `Cc1csc(NNC(=O)Nc2ccccc2)n1`, for which the TGI was over 100 µM.
Same read-out and setting: the figure for `N#Cc1ccc(C2NN=CC23C(=O)c2ccccc2OC3c2ccccc2)cc1` (stereo not given) is over 100 µM; for `S=C(N1CCN(c2ccccc2)CC1)N1CCN(c2ccccc2)CC1` it is over 100 µM; for `O=C1O/C(=C\c2ccc(O)cc2)C(c2ccc(O)c(Cl)c2)=C1Cl` it is over 100 µM.
Same read-out and setting: the figure for `COC1C(O)C(C)OC(OC2CCC3(C)C(CCC4C3C(O)CC3(C)C(C5=CC(=O)OC5)CCC43O)C2)C1O` (stereo not given) is 1.42 µM; for `CCCCC(=O)Nc1ccc2c(C)cc(-c3ccc(-c4cc(-c5ccc(C)cc5)cc(-c5ccc(-c6cc(C)c7ccc(NC(=O)CCCC)nc7n6)cc5)n4)cc3)nc2n1` it is over 100 µM; for `CC1C2CC=CC(=O)[C@@]2(C)CCC12OCCO2` (stereo not given in full) it is over 100 µM.
Same read-out and setting: under `O=C1CC2SC(COCc3ccccc3)(CCN2Cc2ccccc2)C1` (stereo not given) stands over 100 µM; under `COC(=O)/C(C#N)=C(\N)c1c(C)c2ccccc2oc1=N`, over 100 µM.
Turning to `O=c1c2c(F)c(F)c(F)c(F)c2sc2nccn12`, the TGI amounted to 35 µM.
On the same count and under the same terms, under `COC[C@H](C)N=CN1CCc2ccccc2C1(Cc1ccccc1)Cc1ccccc1` stands 51.7 µM; under `O=c1c(Cl)cc2nc3ccccc3sc-2c1Cl`, 30.5 µM.
As to `Cc1ccc(S(=O)(=O)Nc2ccc(-c3cc(-c4cccc(F)c4)c(C#N)c(N)n3)cc2)cc1`, the GI50 is 3.74 µM and the TGI is 15.5 µM.
Take `Cc1ccc(N=C2C(c3ccccc3)=C(SC3=C(c4ccccc4)C(=Nc4ccc(C)cc4)c4ccccc43)c3ccccc32)cc1`: the TGI was over 100 µM.
Still for that read-out and setting: under `COc1cc2c[n+](C)c3c4cc(OC)c(OC)cc4ccc3c2cc1OC` stands over 100 µM; under `CCOC(=O)c1cc(C2CCN(Cc3ccccc3)C2=S)c(C(=O)C=[N+]=[N-])[nH]1` (stereo not given), 93.5 µM; under `CC1=CCC2CC1NC(=O)CCOCCC(=O)NC2(C)C` (stereo not given), over 100 µM.
Regarding `CC1(C)OC(=O)C(Cc2ccccc2)(Cc2ccccc2)C(=O)O1`, the TGI was over 100 µM.
On the same count and under the same terms, the figure for `[O-]c1c2c(nn1-c1ccc(Cl)cc1)c1ccccc1c[n+]2Cc1ccccc1` is over 100 µM; for `COC(=O)C(/C(=N\NC(N)=S)C(=O)Nc1ccccc1[N+](=O)[O-])c1cnc2ccccc2n1` (stereo not given) it is over 100 µM.
In the case of `CN1CCN(Cc2ccc(NC(=O)c3cncc(C#Cc4cnc(N)c5cnccc45)c3)cc2C(F)(F)F)CC1`, the GI50 is 0.177 µM and the TGI stood at 6.42 µM.
`CSCCC(C(=O)O)N(CC1(O)OCC(O)C(O)C1O)N=O` (stereo not given) yielded a TGI of over 100 µM.
As to `COC1=CC(=O)c2nc(Cl)ccc2C1=O`, the GI50 was 11.7 µM and the TGI was found to be 24.8 µM.
Take `O=C1c2ccccc2C(=O)N1CC(CN1C(=O)c2ccccc2C1=O)(C(=O)OCc1ccccc1)C(=O)OCc1ccccc1`: the TGI is over 100 µM.
Same read-out and setting: under `CCOC(=O)C(C(O)c1ccc([N+](=O)[O-])cc1)P(=O)(OCC)OCC` (stereo not given) stands over 100 µM.
